Assay results as given in paper PMC6919601, “Identification of Plasmodium dipeptidyl aminopeptidase allosteric inhibitors by high throughput screening” (PLoS ONE, 2019).
Several values for one entry are separate records, joined by “and”; a condition that tells them apart may be missing. Identical values can stand only once. Hit rate of the full screen: of about 110,000 compounds, about 230 (0.21%) showed an effect of 50% or more. The list shows a part of the results.

Biological target: DPAP1 (Plasmodium falciparum, UniProt Q8IIJ9)
Sequence (Q8IIJ9 whole entry, looked up): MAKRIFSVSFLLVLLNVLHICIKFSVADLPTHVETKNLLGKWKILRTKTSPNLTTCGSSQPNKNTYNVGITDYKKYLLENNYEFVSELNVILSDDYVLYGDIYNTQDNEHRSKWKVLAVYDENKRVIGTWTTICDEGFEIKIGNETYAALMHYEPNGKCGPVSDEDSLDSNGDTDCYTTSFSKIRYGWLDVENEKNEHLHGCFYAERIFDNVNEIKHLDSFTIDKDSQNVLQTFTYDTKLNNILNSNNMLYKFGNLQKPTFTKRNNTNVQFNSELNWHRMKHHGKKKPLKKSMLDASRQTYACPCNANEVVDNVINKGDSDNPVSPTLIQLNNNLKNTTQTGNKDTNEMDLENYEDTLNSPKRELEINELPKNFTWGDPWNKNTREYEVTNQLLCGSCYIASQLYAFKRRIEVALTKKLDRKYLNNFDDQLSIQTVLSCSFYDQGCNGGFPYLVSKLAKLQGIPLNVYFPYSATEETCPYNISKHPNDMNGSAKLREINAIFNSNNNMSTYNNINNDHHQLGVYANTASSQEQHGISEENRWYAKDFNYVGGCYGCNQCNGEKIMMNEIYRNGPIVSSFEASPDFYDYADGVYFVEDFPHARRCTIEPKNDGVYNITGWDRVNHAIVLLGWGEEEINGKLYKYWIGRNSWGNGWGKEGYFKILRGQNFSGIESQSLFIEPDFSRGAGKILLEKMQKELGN
Experiment: primary screen, percent inhibition; read by cleavage of a fluorogenic dipeptide substrate; higher = more effect of the substance
Set-up: species or system P. falciparum D10 trophozoite lysates; single well
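Note: 30 min substrate incubation versus DMSO and 10 µM JCP410 controls.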

Row | SMILES | % Inhibition @ 10 uM
1 | CS(=O)(=O)N(CC(=O)Nc1ccc(S(=O)(=O)Nc2ccccc2)cc1)c1cccc(F)c1 | 2.44% and -0.884%
2 | COc1ccccc1OCCN1C(=O)S/C(=C\c2ccc(N(C)C)cc2)C1=O | -1.26%
3 | COc1ccc2oc(=O)c(C(=O)O)cc2c1 | -2.41%
4 | O=C(CSc1nc2ccccc2n1S(=O)(=O)c1ccccc1)N1CCCCC1 | -0.318%
5 | Cc1cccc(C(=O)Nc2ccc(F)cc2)c1 | -5.65%
6 | COc1ccc(Br)cc1C1CC(=O)N2CN(Cc3ccccc3)CSC2=C1C#N (centres unmarked) | 60.8%
7 | O=C(c1cc(-c2ccc(Br)cc2)nc2ccccc12)N1CCN(c2ncccn2)CC1 | -5.1%
8 | COc1ccc(C2C(C#N)=C(C)N=C3CC(c4ccc(Cl)cc4)CC(O)=C32)cc1 (centres unmarked) | 0.673%
9 | Cc1ccc(OCC(=O)NC(C)C)c(C)c1 | 5.12%
10 | COc1ccc(NC(=O)c2ccccc2)cc1Cl | 1.64%
11 | COc1ccc(CN2CCN(c3c(-c4ccc(Cl)cc4)c(=O)c3=O)CC2)c(OC)c1OC | -6.11%
12 | c1ccc2c(c1)CC(N1CCCCC1)c1ccccc1N2 (centres unmarked) | -1.99%
13 | CCCNC(=O)c1ccc(CS(=O)c2ccc(C)cc2)o1 (centres unmarked) | 1.5%
14 | CCc1c(C)c2cc3c4c(oc3cc2oc1=O)CCCC4 | -1.15%
15 | Cc1cccc(Oc2nc3ccccn3c(=O)c2/C=C(\C#N)C(=O)NCCCOC(C)C)c1C | 0.315%
16 | COc1ccccc1NC(=O)Cc1ccc(Cl)cc1 | -4.7%
17 | Cc1ccc(OCC(=O)NC2CCS(=O)(=O)C2)cc1 (centres unmarked) | 4.98%
18 | CC(NC(=O)C(=O)NCc1ccccn1)C(c1cccs1)N1CCN(Cc2ccccc2)CC1 (centres unmarked) | 2.34%
19 | CCC(C(=O)NCc1ccc(OC(C)C)cc1)n1sc2ccccc2c1=O (centres unmarked) | -5.1%
20 | C=CCn1c(CSc2nc3ccccc3s2)nnc1SCC(=O)NCc1ccccc1 | -4.97%
21 | CCc1ccc(CNC(=O)C(C)n2nc(C)c3c(C)n(-c4ccccc4)nc3c2=O)cc1 (centres unmarked) | -10.4%
22 | O=C(O)c1ccccc1-c1ccccc1C(=O)Nc1cccc2ccccc12 | 6.15%
23 | CC(=O)N1CCc2c([nH]c3ccccc23)C1c1ccc(Cl)cc1 (centres unmarked) | 0.815%
24 | O=C(NCC1COc2ccccc2O1)c1ccc2c(Cl)c3c(nc2c1)CCCC3 (centres unmarked) | -0.0593%
25 | Cc1nnc(SCC(=O)NC(C)c2ccccc2)c2nn(-c3ccccc3)c(C)c12 (centres unmarked) | 4.56%

Row | SMILES | % Inhibition @ 10 uM
26 | CC(C)(O)C(C)(C)C(O)c1ccccc1 (centres unmarked) | 0.708%
27 | O=C(O)C1Nc2c(cccc2C(F)(F)F)C2C=CCC12 (centres unmarked) | 0.345%
28 | CC(C)COc1ccc(C(=O)N2c3ccccc3CC2C)cc1 (centres unmarked) | -3.5%
29 | Cc1cc(C)c(C#N)c(SCC(=O)Nc2c(C)cccc2C)n1 | -6.38%
30 | SC1=C2CCCCC2=NC2(CCCCC2)S1 | 0.222%
31 | CCn1c(SCC(N)=O)nnc1-c1cc(OC)c(OC)c(OC)c1 | -4.97%
32 | COc1cc(C(=O)Nc2nnc(CSCc3ccccc3)s2)cc(OC)c1OC | 9.39%
33 | Cc1cc(C)n(C(=O)c2cc([N+](=O)[O-])ccc2Cl)n1 | -1.97%
34 | O=C(/C=C/c1ccccc1Cl)N(Cc1cccc(F)c1)C1CCS(=O)(=O)C1 (centres unmarked) | -6.85%
35 | Oc1nc(/C=C/c2cc3c(cc2Cl)OCO3)cc(C(F)(F)F)n1 | 0.392%
36 | CCCOc1ccc(C2C(C(=O)OCc3ccccc3)=C(C)N=C3SCCC(=O)N32)cc1 (centres unmarked) | 4.85%
37 | CN(C)CCCN(C(=O)C1COc2ccccc2O1)c1nc2c(F)cccc2s1 (centres unmarked) | -1.07%
38 | CC1=C(C)CC(C(=O)NC2CCCC2)C(C(=O)O)C1 (centres unmarked) | -4.15%
39 | Cc1ccc(Cl)cc1NC(=O)CC1S/C(=N\c2ccc(F)cc2)N(C)C1=O (centres unmarked) | -3.69%
40 | CC(C)N(Cc1ccccc1)C(=O)c1cc(S(=O)(=O)N2CCCC2)cn1C | -3.77%
41 | CC(NC(=O)CSC1=NC(=O)C(c2ccccc2)C(=O)N1)c1ccccc1 (centres unmarked) | 4.65%
42 | COc1ccc(N2CCN(Cc3cc(C)ccc3C)CC2)cc1 | -2.81%
43 | Cc1ccc(-n2nc3c(=O)n(CC(=O)NCc4ccccc4Cl)nc(C)c3c2C)c(C)c1 | 3.24%
44 | O=C(Nc1ccc(N2CCOCC2)cc1)c1ccco1 | -3.63%
45 | COc1ccc(Cl)cc1N(CC(=O)NCC1CCCO1)S(=O)(=O)c1ccccc1 (centres unmarked) | -0.088%
46 | Cc1sc(NC(=O)CCCC(=O)O)c(C(N)=O)c1-c1ccccc1 | -1.07%
47 | COC(=O)C1=C(C)N(CCC2=CCCCC2)C(=O)/C1=C\c1ccc(C(=O)OC)cc1 | -3.33%
48 | Cc1cc(C=C2C(=O)c3ccccc3C2=O)c(C)n1-c1ccncc1 | -6.87%
49 | Cc1ccc(N(Cc2ccc(C(=O)Nc3ccc4c(c3)OCO4)cc2)S(C)(=O)=O)cc1C | 8.06%
50 | CCCN1CCN(CCCNC(=O)c2cnn(-c3ccccc3)c2-n2cccc2)CC1 | -3.35%

Row | SMILES | % Inhibition @ 10 uM
51 | O=C(O)C(Cc1c[nH]cn1)N1C(=O)c2ccccc2C1=O (centres unmarked) | 5.54%
52 | Fc1ccc(CN2CCN(c3ccccc3Cl)CC2)cc1F | -1.92%
53 | CCCCCCN1C(=O)NC(=O)/C(=C\c2ccc(OC)cc2)C1=O | 1.08%
54 | O=C(NCc1ccco1)C(c1ccccc1)c1ccccc1 | 0.431%
55 | CN(CCCn1cnc2c3cc(Cl)ccc3nc-2c1O)C1CCCCC1 | -3.75%
56 | CC(=O)N1N=C(c2ccc(C)c(Cl)c2)OC12CCCC2 | 2.38%
57 | O=C(NCc1cccnc1)c1cc2ccc3cccnc3c2[nH]1 | -5.57%
58 | CCCN1CCC(NCCc2ccccc2OC)CC1 | -4.14%
59 | CC(=O)N1CCC2(CC1)OC(=O)C(C)=C2C(=O)NCCC(C)C | -1.04%
60 | CC(C)C[C@H](NC(=O)OCC1COc2ccccc2O1)C(=O)NCC#N (some centres unmarked) | -6.46%
61 | O=C(COc1ccc(Cl)cc1)NCCN1CCCC1 | -1.82%
62 | CC(C)Oc1ccc(C2CC(=O)N(c3ccccc3)C2=O)cc1 (centres unmarked) | -2.37%
63 | CCn1c(C)nc2c1C(=O)c1ccccc1C2=O | 1.63%
64 | N#Cc1cc([N+](=O)[O-])cnc1SCC(=O)Nc1ccccc1 | 0.0345%
65 | O=C(Nc1cccc(Cl)c1)N(Cc1ccccc1)Cc1ccccc1 | -2.56%
66 | Cc1cc2c(cc3c(=O)n(CC(=O)NCc4ccccc4)ncn32)o1 | 4.95%
67 | COc1ccc(-c2noc(CN(C(=O)Cc3ccc(Cl)cc3)C(C)C)n2)cc1 | -1.84%
68 | COc1cccc(-c2cc(C(=O)N3CCN(C(=O)c4ccco4)CC3)on2)c1 | 2.19%
69 | COc1ccc(-c2ccc3c(N)c(C(=O)Nc4ccc5c(c4)OCCO5)sc3n2)cc1 | -3.58%
70 | CCOc1ccc(CNC(=O)c2cc(O)nc3ccc(Br)cc23)cc1OC | 3.24%
71 | O=C(c1sc2cc(Cl)ccc2c1Cl)N1CCCC1 | 1.37%
72 | COc1cc(/C=N/N=C(\C)c2nnn(-c3nonc3N)c2C)ccc1O | -1.68%
73 | COc1ccc(Cl)cc1C(=O)Nc1sc2c(c1C#N)CCC2 | -4.76%
74 | CCOc1ccccc1N(CC(=O)N1CCN(c2ccccc2)CC1)S(=O)(=O)c1ccc(C)cc1 | 6.86%
75 | Cc1ccc(OCc2nc(-c3ccc(C(=O)NC4CCCC4)cc3)oc2C)cc1 | -5.73%

Row | SMILES | % Inhibition @ 10 uM
76 | CC(=O)c1c(C)oc2c1cc(NS(=O)(=O)c1ccc(Cl)cc1)c1ccccc12 | 4.08%
77 | COc1ccc(CCN(C)CC(=O)Nc2cc(C)nc3ccccc23)cc1OC | -5.47%
78 | COc1ccccc1N1CCN(C(=O)c2ccc([N+](=O)[O-])cc2)CC1 | -1.38%
79 | Clc1ccc(-c2ncnn2-c2ccc(Br)nc2)c(Cl)c1 | 5%
80 | COCCCNC(=O)C1Sc2nnc(-c3ccccc3)n2NC1c1ccccc1 (centres unmarked) | 1.72%
81 | Cc1ccc(N2CCN(c3ccc(C)cc3)C(CC(=O)O)C2=O)cc1 (centres unmarked) | -3.52%
82 | Cc1ccc(C(CC(=O)N2CCC3(CC2)OCCO3)N2Cc3ccccc3C2=O)cc1 (centres unmarked) | 0.796%
83 | Oc1ncnc(O)c1C(c1ccc(Cl)cc1)c1c(O)ncnc1O | -7.58%
84 | Cc1[nH]nc2c1C1(C(=O)Nc3ccc(Br)cc31)C(C#N)=C(N)O2 (centres unmarked) | 4.08%
85 | CC1CCCCN1C1CCN(CCc2ccccc2)CC1 (centres unmarked) | -0.603%
86 | CCOc1cc(C2NCCc3cc(OC)c(OC)cc32)ccc1O (centres unmarked) | -1.79%
87 | Cc1sc(C2C(C#N)=C(N)OC3=C2C(=O)CCC3)cc1COc1ccc(F)cc1Cl (centres unmarked) | 0.385%
88 | Cn1c(=O)c2nc(NCc3ccco3)[nH]c2n(C)c1=O | -2.98%
89 | COc1ccc(OC)c(CCNC(=O)COCc2cc(-c3ccc(F)cc3)on2)c1 | -3.25%
90 | OC1(c2ccc(Cl)cc2)CCN(Cc2ccc(F)cc2F)CC1 | -0.0648%
91 | CN(C)CCN(C(=O)CCS(=O)(=O)c1ccccc1)c1nc2ccc(Cl)cc2s1 | 0.693%
92 | O=S(=O)(c1cc(Br)c(Br)s1)N1CCN(Cc2ccccc2)CC1 | -4.16%
93 | Cc1cc(=O)n2nc(N(C)CC(=O)NC3CCCc4ccccc43)sc2n1 (centres unmarked) | 1.38%
94 | CCc1ccc2nc(N3CCC(C(=O)NC4CC4)CC3)sc2c1 | -7.29%
95 | CCC(CO)NC(=O)c1ccc(-c2nn(C)c(=O)c3ccccc23)cc1 (centres unmarked) | -3.23%
96 | CC(C)N(Cc1ccccc1)S(=O)(=O)c1ccc(CCN2C(=O)c3cccnc3C2=O)cc1 | -0.571%
97 | O=c1c2ccccc2ncn1Cc1ccc(Cl)cc1 | 0.121%
98 | COc1ccc(N2C(=O)/C(=C\c3c(OC)ccc4ccccc34)C(=O)NC2=S)cc1 | 2.65%
